# Source: PubChem BioAssay AID686978 (National Center for Advancing Translational Sciences (NCATS), 2013)
# Hit rate of the full screen: of about 420,000 compounds, about 64,000 (15%) were called active. Inconclusive means that the source gave no clear call. Such entries were picked first, then a sample of the others. Calls come from the whole dose curve; as a rule, active = well fitted inhibition curve with a large enough effect; inconclusive = small, poorly fitted or top-dose-only effect; inactive = flat fitted curve, though single readings scatter. Potencies of inconclusive entries are left out as doubtful fits.
# Assay: qHTS for Inhibitors of human tyrosyl-DNA phosphodiesterase 1 (TDP1): qHTS in cells in absence of CPT; note: nearly all actives have a fitted effect of over 55% in size
# Conditions: DT40 Tdp1-/- hTDP1 cells, no CPT, ATP luminescence, 48 h; activity change, negative = growth inhibition: at 46.2 µM (top of the series) unless noted
# Outline: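 Camptothecin absent (DMSO only). Human TDP1-complemented DT40 knockout cells, 400 cells/well, 37 °C for minimum 48 hr; ATP measured via CellTiter-Glo, 30 min dark incubation, luminescence.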
# % is set by controls: 0 for no effect and ±100 for the full control effect; potency is the fitted concentration of half-maximal effect; tags give direction and shape of the fitted curve.
Structure (SMILES),Potency,"activity change, negative = growth inhibition"
COc1ccc(C(C)=O)cc1CC1(C)C(=O)Nc2ccc(OC(F)(F)F)cc21 (stereo not drawn),"inconclusive [inhibitor, partial curve, poor fit]",
O=c1sc(Nc2ccccc2)nc2ccsc12,,inactive: 1.37%
COc1ccc(CNn2c(C)nc3ccccc3c2=O)cc1,"inconclusive [inhibitor, single point]",
Cc1ccc(S(=O)(=O)N2CCC(N3CCN(Cc4ccccc4)C(=O)C3=O)CC2)cc1C,"inconclusive [inhibitor, single point]",
COc1ccc(C(=O)Nc2ccc(C(=O)c3ccccc3)cc2)cc1,,inactive: -22.3%
CCOc1ccc(CN2CCN(Cc3[nH]c4ccc(OC)cc4c3C)CC2CCO)cc1 (stereo not drawn),"inconclusive [inhibitor, single point]",
COc1ccc2cc(CN(C(=O)c3cc(C)nn3C)C3CC3)c(-c3ccc(Cl)cc3)nc2c1,"inconclusive [inhibitor, single point]",
O=[N+]([O-])c1ccc(/C=N/Nc2nc(N3CCCCC3)nc(N3CCCCC3)n2)cc1,active: 16.4 µM,
Cc1cccc(-n2c(C)cc(C(=O)C(=O)Nc3ccccc3F)c2C)c1C,"inconclusive [inhibitor, partial curve]",
Cc1cc([N+](=O)[O-])ccc1NC(=O)COc1nsnc1N1CCOCC1,"inconclusive [inhibitor, single point]",
O=C(O)c1cn(-c2ccccc2)nc1-c1ccc(F)cc1,,inactive: 5.69%
CCN1C(=O)C(CC(=O)Nc2ccc(F)cc2)N(Cc2ccc3c(c2)OCO3)C1=S (stereo not drawn),"inconclusive [inhibitor, single point]",
CC[C@]12c3[nH]c4ccc(OC)cc4c3CCN1C(=O)C(CC(=O)NCCCOC)C[C@@H]2C(=O)N1CCN(C(=O)c2ccco2)CC1 (stereo partly drawn),,inactive: 1.33%
O=c1[nH]c(SCc2c(F)cccc2Cl)nc2c1CCC2,"inconclusive [inhibitor, single point]",
CCc1nc(N2CCN(C(=O)CCCl)CC2)c2c3c(sc2n1)CCCC3,"inconclusive [inhibitor, single point]",
COC(=O)c1c(NC(=O)COC(=O)c2ccc(C)s2)sc2c1CCCCC2,"inconclusive [inhibitor, single point]",
C=CCn1c(O)c(N=NC(=O)OCC)c2ccccc21,"inconclusive [inhibitor, partial curve, poor fit]",
CCOc1ccc(-c2cccc(NS(=O)(=O)c3ccc(F)cc3F)c2)nn1,"inconclusive [inhibitor, single point]",
O=C(COC(=O)CCOc1ccccc1)Nc1ncc(Cl)cc1Cl,,inactive: 13.7%
COc1ccc(-c2noc(CNC(=O)c3ccccc3Br)n2)cc1,,inactive: -20.9%
COc1ccc(CCNC(=O)c2cc(=O)[nH]c3ccc(Br)cc23)cc1OC,"inconclusive [inhibitor, partial curve, poor fit]",
CCOC(=O)c1sc(NC(=O)C(CC)OC(=O)C(CC(C)C)NC(=O)c2ccccc2)nc1C (stereo not drawn),,inactive: -11.5%

Structure (SMILES),Potency,"activity change, negative = growth inhibition"
O=[N+]([O-])c1ccccc1-c1ccc(C(=S)N2CCCC2)o1,"inconclusive [inhibitor, partial curve, poor fit]",
COc1cc(-c2nc3ccc(C)cn3c2NCc2ccccc2)ccc1-c1cccc(Cl)c1,"inconclusive [inhibitor, single point]",
CC(C)C(NC(=O)c1ccc(C(C)(C)C)cc1)C(=O)Nc1cccc(S(N)(=O)=O)c1 (stereo not drawn),,inactive: -2.92%
Cc1cccc(C(=O)Nc2nnc(S(=O)(=O)N(C)Cc3ccccc3)s2)c1,"inconclusive [inhibitor, single point]",
O=C(CN1CCCCCC1)N1c2ccccc2C=Cc2ccccc21,"inconclusive [inhibitor, partial curve, poor fit]",
COc1ccc2sc(-c3ccc(S(C)(=O)=O)cc3)c(-c3ccc(SC)cc3)c2c1,"inconclusive [inhibitor, single point]",
Cc1ccc(S(=O)(=O)CC(=O)Nc2nc3c(C)cc(C)cc3s2)cc1,"inconclusive [inhibitor, single point]",
CN1C(=O)CC2(C)C1=CCc1scnc12 (stereo not drawn),,inactive: -5.35%
O=C(Cn1cc(C(=O)c2cccs2)c2ccccc21)NCc1ccc2c(c1)OCO2,"inconclusive [inhibitor, single point]",
CCOC(=O)C1CCCN(C(=O)CC(C)c2ccccc2)C1 (stereo not drawn),,inactive: -0.881%
Nc1ncncc1-c1ccccc1Cl,"inconclusive [inhibitor, single point]",
CSc1nc2nc3c(cc2c(=O)n1-c1ccccc1C)CCCC3,active: 7.31 µM,
CCCOc1ccc(C2c3c(-c4ccccc4O)n[nH]c3C(=O)N2CCc2ccccc2)cc1OCC (stereo not drawn),active: 13 µM,
COC(=O)[C@]12CCCCC=C1N(Cc1ccc3c(c1)OCO3)C(=O)[C@H](CC(=O)N1CCCC1)C2,"inconclusive [inhibitor, single point]",
COc1ccc(-n2cnc3cc(NCc4cccs4)ccc32)cc1,"inconclusive [inhibitor, single point]",
Cn1cccc1C(=O)N1CCC[C@@]2(CCN(Cc3ccc(C#N)cc3)C2)C1,,inactive: -25.7%
COc1ccc(-c2nc3ccccc3o2)cc1OC,"inconclusive [inhibitor, partial curve]",
CCOC(=O)c1cc2c(c(-c3cccc(-c4cc5ccccc5o4)c3)n1)[C@@H](CCO)N(S(=O)C(C)(C)C)C2 (stereo partly drawn),"inconclusive [inhibitor, single point]",
COc1cccc(NC(=O)c2cccc3c(=O)c4c([nH]c23)CCCC4)c1,"inconclusive [inhibitor, partial curve]",
CCOc1ccc(CNC(=O)c2ccc(Sc3ccc(C)cc3)c(NC(C)=O)c2)cc1,active: 20.6 µM,
COc1ccc(CCn2c(C)cc(C(=O)COC(=O)c3cnc(C)cn3)c2C)cc1,"inconclusive [inhibitor, single point]",
